Measurements taken from PubChem BioAssay AID624202 (National Center for Advancing Translational Sciences (NCATS), 2012).
Screen size: about 380,000 compounds; about 4,000 (1.1%) were called active. This list was built around the results that the source calls inconclusive (neither active nor inactive); the mix of calls is not that of the screen. The call rests on the fitted dose curve; in most records, active means well fitted activation curve with a large enough effect; inconclusive means small, poorly fitted or top-dose-only effect; inactive means no such curve, though single readings can be large or run the other way. Potencies of inconclusive entries are doubtful fits and often do not repeat.

assay: qHTS Assay to Identify Small Molecule Activators of BRCA1 Expression; conditions: MCF7-BRCA1-FFLuc reporter, luminescence, 48 h; activation: at 46.1 µM (top of the series), scaled: vehicle 0%, 10 µM genistein 100% unless noted; further: nearly all actives have a fitted effect of over 80% in size
Procedure, shortened: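 First, MCF7-BRCA1-FFLuc cells (2000/well) attach for 2 h; next, compounds are pin-added and incubated 48 h at 37 °C; finally, luciferase reagent is added and luminescence read after 15 min.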
Potency means the concentration at half of the fitted maximal effect; tags describe the fitted curve by direction and shape.

**Q.** With COc1ccc(/C=C\c2nc(=O)c3ccccc3o2)cc1 as the compound, how does the Potency read?
**A.** The Potency was inconclusive: 15.8 µM [activator, partial curve, poor fit].

**Q.** For C[C@@H]1CN(C(=O)c2cc(COc3cccc(C(F)(F)F)c3)on2)C[C@H](C)O1, which Potency is on record?
**A.** The Potency was inconclusive: 15.8 µM [activator, partial curve, poor fit].

**Q.** For CC(C)c1ccc(/C=N/NC(=O)c2c(Cl)cnn2C)cc1, which Potency is on record?
**A.** Its Potency is active: 7.08 µM.

**Q.** Which Potency does the source give for COc1cccc2sc(N3CCN(C(=O)c4ccc([N+](=O)[O-])o4)CC3)nc12 here?
**A.** The Potency was “inactive”.

**Q.** Which Potency does the source give for N#C/C(=C/c1ccc(N2CCCCC2)cc1)c1cccc(F)c1 here?
**A.** The Potency was active: 7.94 µM.

**Q.** For O=C(NC1CCCC1)c1cc2c(ccc3ccccc32)o1, which Potency is on record?
**A.** The Potency was inconclusive: 2.51 µM [activator, partial curve, poor fit].

**Q.** For O=C(O)c1ccc(N/N=C/c2ccc(-c3cc(Cl)ccc3Cl)o2)cc1, which Potency is on record?
**A.** Its Potency is inconclusive: 0.562 µM [activator, full curve, poor fit].

**Q.** With O=C(Nc1nc(-c2cccc([N+](=O)[O-])c2)cs1)C(c1ccccc1)c1ccccc1 as the compound, how does the Potency read?
**A.** The Potency was “inactive”.

**Q.** With Cc1ccc2nc(Cl)c(CNCc3ccccc3)cc2c1 as the compound, how does the Potency read?
**A.** The Potency was inconclusive: 22.4 µM [activator, single point].

**Q.** For CSc1ccccc1NC(=O)C1C2CCC(C2)C1C(=O)O (configuration not stated), which Potency is on record?
**A.** The Potency was “inactive”.

**Q.** With O=C(NC1=NCCS1)c1cc(-c2ccc(-c3ccccc3)cc2)nc2ccccc12 as the compound, how does the Potency read?
**A.** The Potency was inconclusive: 2 µM [activator, full curve, poor fit].

**Q.** With COc1ccc(Nc2nc(-c3cc4cccc(OC)c4oc3=O)cs2)cc1 as the compound, how does the Potency read?
**A.** Its Potency is “inactive”.

**Q.** For O=C1C2C3C=CC(C4CC34)C2C(=O)N1CCc1ccccc1 (configuration not stated), which Potency is on record?
**A.** Its Potency is inconclusive: 14.1 µM [activator, single point].

**Q.** For CC(=O)c1cc(C#N)c(SCC(=O)Nc2nccs2)nc1C, which Potency is on record?
**A.** The Potency was active: 2 µM.

**Q.** Which Potency does the source give for CC1CCc2sc(C(=O)N/N=C/c3ccc(O)cc3)cc2C1 (configuration not stated) here?
**A.** Its Potency is inconclusive: 31.6 µM [activator, single point].

**Q.** For CC(C)=CC(=O)Nc1nnc(-c2ccccc2)s1, which Potency is on record?
**A.** The Potency was inconclusive: 3.55 µM [activator, full curve, poor fit].

**Q.** For S=c1[nH]nc(-c2ccc3ccccc3n2)n1-c1ccccc1, which Potency is on record?
**A.** Its Potency is “inactive”.

**Q.** With Cc1ccc(S(=O)(=O)N2CCN(c3nc(Nc4ccccc4O)nc4ccccc34)CC2)cc1 as the compound, how does the Potency read?
**A.** Its Potency is “inactive”.

**Q.** With CCc1ccc(CN(C)C(=O)c2cc(COc3ccc(OC)cc3Cl)on2)nc1 as the compound, how does the Potency read?
**A.** The Potency was active: 8.91 µM.

**Q.** Which Potency does the source give for COc1ccc(NC(=O)Nc2ccccc2SC)cc1 here?
**A.** The Potency was inconclusive: 5.62 µM [activator, partial curve, poor fit].

**Q.** Which Potency does the source give for Cc1ccc(C)c(OCC(=O)O/N=C(\N)c2ccccn2)c1 here?
**A.** Its Potency is inconclusive: 2.24 µM [activator, full curve, poor fit].

**Q.** With CN1CCN(/N=C/c2ccc(Cl)c(Cl)c2)CC1 as the compound, how does the Potency read?
**A.** Its Potency is inconclusive: 17.8 µM [activator, partial curve, poor fit].

**Q.** For Fc1ccc(NCc2cn3ccccc3n2)cc1, which Potency is on record?
**A.** Its Potency is inconclusive: 8.91 µM [activator, partial curve, poor fit].

**Q.** With Cc1ccc(C(=O)NC2CCC(C)CC2)s1 (configuration not stated) as the compound, how does the Potency read?
**A.** The Potency was inconclusive: 1.12 µM [activator, full curve, poor fit].

**Q.** Which Potency does the source give for CCCNC(=O)c1noc2c1CCc1cc(OC)ccc1-2 here?
**A.** The Potency was inconclusive: 1.58 µM [activator, full curve, poor fit].

**Q.** For Cc1ccc([N+](=O)[O-])cc1N/C=C1\CCCCC1=O, which Potency is on record?
**A.** Its Potency is inconclusive: 15.8 µM [activator, single point].

**Q.** Which Potency does the source give for O=C(Nc1ncc(Cc2cccc([N+](=O)[O-])c2)s1)c1ccco1 here?
**A.** The Potency was inconclusive: 15.8 µM [activator, partial curve, poor fit].

**Q.** With CN(Cc1cccs1)C(=O)CCCc1c[nH]c2ccccc12 as the compound, how does the Potency read?
**A.** The Potency was inconclusive: 14.1 µM [activator, partial curve, poor fit].

**Q.** With CC(=O)c1ccc(N=Nc2ccc(N(C)C)cc2)cc1 as the compound, how does the activation read?
**A.** The activation was inconclusive: 77.7% [activator].

**Q.** For COC1CCN(C(=O)C2CCC(=O)N(C3CCCCCC3)C2)CC1 (configuration not stated), which Potency is on record?
**A.** Its Potency is inconclusive: 35.5 µM [activator, single point].

**Q.** For COCCN(CCOC)S(=O)(=O)c1ccc(C(=O)Nc2nnc(C)o2)cc1, which Potency is on record?
**A.** The Potency was “inactive”.

**Q.** With Cc1c(Cl)cccc1-c1ccc(C(=O)N2CCN(c3ccc([N+](=O)[O-])cc3)CC2)o1 as the compound, how does the Potency read?
**A.** The Potency was “inactive”.

**Q.** With Fc1ccccc1Cn1nnc(-c2ccc3c(c2)OCO3)n1 as the compound, how does the Potency read?
**A.** Its Potency is inconclusive: 1.41 µM [activator, full curve, poor fit].

**Q.** For O=C(CCc1ccccc1)NCCC1=CCCCC1, which Potency is on record?
**A.** Its Potency is active: 11.2 µM.

**Q.** With CCOC(=O)c1cc(-c2ccc(F)cc2)n(CCC(=O)NC2CCN(Cc3ccccc3)CC2)c1C as the compound, how does the Potency read?
**A.** Its Potency is “inactive”.

**Q.** For O=C(c1cc(-c2ccc(Br)cc2)on1)N1CCCC1, which Potency is on record?
**A.** Its Potency is inconclusive: 0.631 µM [activator, full curve, poor fit].

**Q.** For Cc1cc(NCCCN)nc(-c2ccccc2O)n1, which Potency is on record?
**A.** The Potency was active: 3.55 µM.

**Q.** With Cc1oncc1-c1csc(-c2ccccc2)n1 as the compound, how does the Potency read?
**A.** Its Potency is inconclusive: 12.6 µM [activator, partial curve, poor fit].

**Q.** Which Potency does the source give for O=c1c(-c2ccccc2)coc2cc(O)ccc12 here?
**A.** Its Potency is active: 12.6 µM.

**Q.** For CCn1c(-c2cc(-c3ccc(OC(C)C)cc3)nc3ccccc23)n[nH]c1=S, which Potency is on record?
**A.** Its Potency is active: 7.08 µM.

**Q.** For O=C(c1cc2cc(Br)ccc2o1)N1CCOCC1, which Potency is on record?
**A.** The Potency was inconclusive: 10 µM [activator, partial curve, poor fit].

**Q.** With COC(=O)CC1(C(=O)OC)Oc2ccc(Br)cc2C(=O)N1c1ccc(Br)cc1Cl (configuration not stated) as the compound, how does the Potency read?
**A.** Its Potency is “inactive”.

**Q.** With O=C(Nc1ccc(N2CCOCC2)c(Cl)c1)c1ccco1 as the compound, how does the Potency read?
**A.** Its Potency is inconclusive: 1.41 µM [activator, full curve, poor fit].

**Q.** With c1ccc(-c2csc(Nc3ncccn3)n2)cc1 as the compound, how does the Potency read?
**A.** Its Potency is inconclusive: 0.631 µM [activator, full curve, poor fit].

**Q.** For N#Cc1nc(-c2ccccc2F)oc1NCCc1ccccc1, which Potency is on record?
**A.** The Potency was inconclusive: 22.4 µM [activator, single point].

**Q.** With Cc1ccc(-c2nc(-c3nccc4ccccc34)oc2-c2ccccc2)cc1 as the compound, how does the Potency read?
**A.** Its Potency is inconclusive: 17.8 µM [activator, partial curve, poor fit].

**Q.** Which Potency does the source give for COC(=O)C1=C(C)N=C2SC(C)C(=O)N2C1c1ccc(C(=O)OC)cc1 (configuration not stated) here?
**A.** Its Potency is “inactive”.

**Q.** For COc1ccc(-c2csc(NC(=O)CSc3nc(C)cs3)n2)cc1, which Potency is on record?
**A.** The Potency was active: 12.6 µM.

**Q.** Which Potency does the source give for C/C(=N\NC(=O)c1ccccc1)c1ccc(C)c([N+](=O)[O-])c1 here?
**A.** The Potency was inconclusive: 22.4 µM [activator, single point].

**Q.** Which activation does the source give for Cc1c(NC(=O)c2ccc(-c3ccccc3)cc2)cccc1C(=O)O here?
**A.** Its activation is inconclusive: -69.3% [activator].

**Q.** Which Potency does the source give for COC(=O)CCC(=O)NC(=S)Nc1cc(Cl)ccc1Cl here?
**A.** Its Potency is “inactive”.

**Q.** Which Potency does the source give for CC(C)(C(=O)N1CCC1(C)C(=O)NS(=O)(=O)c1ccc(C#N)cc1)c1ccccc1 (configuration not stated) here?
**A.** The Potency was “inactive”.

**Q.** For COc1cc(CNc2ccc(NC(C)=O)cc2)ccc1OCc1ccccc1C, which Potency is on record?
**A.** The Potency was inconclusive: 15.8 µM [activator, single point].

**Q.** With CCOCC(=O)Nc1nc2ccc(C)cc2s1 as the compound, how does the Potency read?
**A.** Its Potency is inconclusive: 1.58 µM [activator, partial curve, poor fit].

**Q.** For O=C(Nc1ccc2c(c1)OCCO2)c1c(F)cccc1F, which Potency is on record?
**A.** The Potency was active: 2.51 µM.

**Q.** For COc1cccc(Nc2nc(CC(C)=O)ns2)c1, which Potency is on record?
**A.** Its Potency is active: 11.2 µM.

**Q.** With COc1ccc(-c2nnn(Cc3ccccc3F)n2)cc1 as the compound, how does the Potency read?
**A.** Its Potency is active: 3.98 µM.

**Q.** With OCCc1ccc(NCCc2ccco2)cc1 as the compound, how does the Potency read?
**A.** The Potency was inconclusive: 12.6 µM [activator, partial curve, poor fit].

**Q.** With O=C(CNC(=S)NC(=O)C1CCCCC1)c1ccccc1 as the compound, how does the Potency read?
**A.** Its Potency is active: 6.31 µM.

**Q.** With CC(=O)Nc1nc2cc3c(cc2s1)OCO3 as the compound, how does the Potency read?
**A.** The Potency was inconclusive: 7.94 µM [activator, partial curve, poor fit].

**Q.** With Cc1ccc(/C(N)=N/OC(=O)c2ccc(C)cc2Cl)cc1 as the compound, how does the Potency read?
**A.** Its Potency is inconclusive: 0.631 µM [activator, full curve, poor fit].

**Q.** With COc1cc(SC)ccc1C(=O)Nc1ccc2ncccc2c1 as the compound, how does the Potency read?
**A.** The Potency was inconclusive: 0.562 µM [activator, full curve, poor fit].

**Q.** For O=C(NC1CCCCC1)c1noc2c1CCCCC2, which Potency is on record?
**A.** The Potency was inconclusive: 1.58 µM [activator, full curve, poor fit].

**Q.** With O=C(Nc1ccc2oc(-c3cccnc3)nc2c1)c1ccco1 as the compound, how does the Potency read?
**A.** The Potency was inconclusive: 15.8 µM [activator, partial curve, poor fit].

**Q.** For O=C(c1ccc2ccccc2c1)N1CCN(Cc2ccccc2)CC1, which Potency is on record?
**A.** Its Potency is inconclusive: 12.6 µM [activator, partial curve, poor fit].

**Q.** Which Potency does the source give for CCCC1Oc2ccccc2C(=O)N(CC(=O)c2ccc3c(c2)OCCO3)C1=O (configuration not stated) here?
**A.** The Potency was inconclusive: 17.8 µM [activator, single point].

**Q.** With N/C(CN1CCCC1=O)=N\OC(=O)c1ccccc1Cl as the compound, how does the Potency read?
**A.** Its Potency is inconclusive: 15.8 µM [activator, single point].

**Q.** With COc1ccc(N(C(C)C(=O)N2CCC(Cc3ccccc3)CC2)S(C)(=O)=O)cc1 (configuration not stated) as the compound, how does the Potency read?
**A.** The Potency was “inactive”.

**Q.** For COc1ccc(CNC(=O)Cn2cccc2C(=O)c2ccccc2)cc1, which Potency is on record?
**A.** Its Potency is active: 11.2 µM.

**Q.** For O=C(Nc1ccc2oc(-c3ccccc3Cl)nc2c1)c1ncn[nH]1, which Potency is on record?
**A.** Its Potency is inconclusive: 1.26 µM [activator, full curve, poor fit].

**Q.** With Cc1ccc(OCC(=O)Nc2ccccc2[N+](=O)[O-])c(Br)c1 as the compound, how does the Potency read?
**A.** Its Potency is inconclusive: 3.16 µM [activator, full curve, poor fit].

**Q.** With Cc1ccccc1NC(=O)Cc1nc(CSc2nnc(-c3ccc4c(c3)OCO4)o2)cs1 as the compound, how does the Potency read?
**A.** The Potency was inconclusive: 10 µM [activator, partial curve, poor fit].
